In publication PMC4336329 (PLoS ONE, 2015):
In all, about 310,000 compounds went through this assay and about 14,000 (4.5%) showed an effect of 50% or more. Effects have a minus sign here. Some of the results follow.

biological target: human ether-à-go-go-related gene (hERG) potassium channel (human, UniProt Q12809); experiment: primary screen, population patch clamp on CHO cells stably expressing hERG
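Further: peak tail current of the secondary pulse compared with the same well before compound.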

human ether-à-go-go-related gene (hERG) potassium channel, sequence (Q12809 whole entry, looked up): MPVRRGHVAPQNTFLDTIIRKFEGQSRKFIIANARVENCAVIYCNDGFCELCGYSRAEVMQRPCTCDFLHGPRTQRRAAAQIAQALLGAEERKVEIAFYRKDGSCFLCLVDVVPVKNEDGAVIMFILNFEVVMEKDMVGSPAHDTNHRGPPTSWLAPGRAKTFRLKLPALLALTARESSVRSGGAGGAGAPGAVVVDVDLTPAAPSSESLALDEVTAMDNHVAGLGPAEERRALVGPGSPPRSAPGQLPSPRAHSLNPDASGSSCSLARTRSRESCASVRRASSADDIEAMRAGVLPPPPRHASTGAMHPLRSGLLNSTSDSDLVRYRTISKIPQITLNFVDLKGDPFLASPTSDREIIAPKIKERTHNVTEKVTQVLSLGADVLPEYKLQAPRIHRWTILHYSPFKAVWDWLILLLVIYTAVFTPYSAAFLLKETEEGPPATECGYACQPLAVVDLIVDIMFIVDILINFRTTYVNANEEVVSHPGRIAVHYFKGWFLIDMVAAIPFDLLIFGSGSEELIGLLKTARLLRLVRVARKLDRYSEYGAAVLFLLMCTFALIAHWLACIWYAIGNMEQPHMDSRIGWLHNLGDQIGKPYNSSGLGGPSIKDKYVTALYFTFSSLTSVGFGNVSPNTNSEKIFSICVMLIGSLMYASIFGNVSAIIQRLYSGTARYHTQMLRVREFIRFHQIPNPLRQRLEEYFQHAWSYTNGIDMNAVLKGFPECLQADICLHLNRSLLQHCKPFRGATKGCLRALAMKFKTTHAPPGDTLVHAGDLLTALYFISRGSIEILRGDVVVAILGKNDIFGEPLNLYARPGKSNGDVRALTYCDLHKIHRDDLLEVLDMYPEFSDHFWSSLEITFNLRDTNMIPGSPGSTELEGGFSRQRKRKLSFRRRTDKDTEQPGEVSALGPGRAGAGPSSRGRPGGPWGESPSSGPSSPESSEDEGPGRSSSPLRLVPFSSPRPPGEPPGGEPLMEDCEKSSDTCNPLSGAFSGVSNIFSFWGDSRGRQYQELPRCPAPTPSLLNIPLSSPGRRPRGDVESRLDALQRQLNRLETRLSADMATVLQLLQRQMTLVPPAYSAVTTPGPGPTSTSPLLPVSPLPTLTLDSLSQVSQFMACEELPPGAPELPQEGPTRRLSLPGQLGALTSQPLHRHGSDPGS

Row | SMILES | hERG current change (%, negative = inhibition) at 10uM [%]
1 | CCC(C)NC(=O)CCn1c(=O)c2cccn2c2ccc(F)cc21 (centres unmarked) | 3.96
2 | COc1cnn(-c2ccccc2)c(=O)c1SCc1ccc(Cl)cc1Cl | -21.4
3 | COCCn1c(Cc2ccccc2)nnc1SCC(=O)N1CCCC1=O | 6.8
4 | CCOc1ccccc1C(=O)NCC(=O)OCc1c(C)noc1C | 4.77
5 | CCOC(=O)c1ccccc1NC(=O)COC | -8.07
6 | COC(=O)[C@@]12CCCCN1[C@H](c1ccc(SC3CCCCC3)cc1)[C@@H]1C(=O)N(C)C(=O)[C@@H]12.O=C(O)C(F)(F)F | 15.2
7 | Cc1nc2ccc(S(=O)(=O)c3ccc4nc(C)[nH]c4c3)cc2[nH]1 | 31.4
8 | CN(CCc1ccccc1)C1CCCN(S(=O)(=O)N(C)C)C1 (centres unmarked) | -15.7
9 | COc1cc(/C=C2/C(C)=C(C#N)c3nc(N)c(C#N)c(C)c32)ccc1OCC(=O)O | 15.2
10 | CC(O)/C=C/C1OC(=O)CC1Nc1ccc(C=O)cc1 (centres unmarked) | 3.72
11 | OC1C2CN3CCN(C2)CC1(Cc1ccccc1)C3 (centres unmarked) | -0.552
12 | Br.COc1c2c(cc3c1OCO3)CCN(C)C2 | 0.899
13 | O=C(Cc1ccccc1)NCC(=O)OCC(=O)c1cccs1 | -12.3
14 | Cc1nn(-c2ccc([N+](=O)[O-])cc2)c2c1C(c1cccc(Br)c1)N1C(=N2)C(=O)Nc2ccccc21 (centres unmarked) | 2.1
15 | O=C(CSc1nnc(Nc2ccccc2)s1)Nc1cccc(S(=O)(=O)N2CCCCC2)c1 | -0.847
16 | C=CC(C)(C)O[C@@H]1O[C@H](CO)[C@@H](O)[C@H](O)[C@H]1O | 40.6
17 | CC(OC(=O)c1cc2sccc2n1C)C(=O)NCc1cccs1 (centres unmarked) | -7.34
18 | Cc1nnc(NC(=O)CSc2ccccn2)s1 | 1.51
19 | CCOc1cccc(-c2cc(C(=O)N/N=C/c3ccc(OC)c(CN4CCOCC4)c3)c3ccccc3n2)c1 | 12.9
20 | COc1ccc(OC)c(CN2CCC(N3CCC(C(=O)NC4CC4)CC3)CC2)c1 | -11.1
21 | O=C(CCCn1c(=O)[nH]c2cc(Cl)ccc2c1=O)NCC1CCCO1 (centres unmarked) | -1.69
22 | Oc1cc2c(cc1CN1CCN(c3ncccn3)CC1)OCO2 | 19.1
23 | O=C(NCCSc1ncc(-c2ccccc2)[nH]1)c1ccco1 | -13.6

Row | SMILES | hERG current change (%, negative = inhibition) at 10uM [%]
24 | O=C(O)c1ccc(S(=O)(=O)N(CCc2ccccc2)Cc2ccc(Cl)cc2)cc1 | 14.4
25 | Nc1cc(S(=O)(=O)N2CCCCC2)ccc1Oc1ccccc1 | -10.3
26 | COCCOC(=O)C1=C(C)N(Cc2ccccc2)C(=O)NC1c1cccc(OC)c1OC (centres unmarked) | -21.3
27 | Cn1cccc1/C=N/NC(=O)c1ccco1 | 6.83
28 | C/C(CC(=O)Nc1ccc2ccccc2c1)=N\NC(=O)c1ccc(O)c(O)c1 | -6.73
29 | O=C(Nc1scc(-c2ccccc2)c1C(=O)O)c1ccccc1F | 17.3
30 | Cc1cc(C(=O)OCC(=O)N2CCCCCC2)ccc1[N+](=O)[O-] | -3.13
31 | C=CCN=C1NN=C(c2cc(C)n(CCOC)c2C)CS1.Cl | -16
32 | CNC(=S)Nc1cc(C(F)(F)F)ccc1Cl | -17.5
33 | COc1ccccc1/C=C/C=C1N=C(/C=C/c2ccc(Cl)cc2)OC/1=O | -1.07
34 | Cc1cccc(Cn2c(=O)n(-c3ccc(CC(=O)NCc4ccco4)cc3)c(=O)c3sccc32)c1 | 0.339
35 | Cc1ccnc2nc(C(=O)OCCOc3cccc(Br)c3)nn12 | -27.9
36 | CC(C(=O)NCC(=O)Nc1ccc(F)c(F)c1F)N1CCN(Cc2ccc(C#N)cc2)CC1 (centres unmarked) | -61
37 | O=C(Nc1ccc(-c2nc3ccccc3s2)cc1)C1=COCCO1 | 22.2
38 | Cc1ccc(/C=N/n2nnnc2N)cc1[N+](=O)[O-] | 6.16
39 | COc1cccc(CNC(=O)Cn2cccc2)c1 | -1.98
40 | COc1ccc(NC(=O)C(C)NS(=O)(=O)c2ccccc2)cc1Cl (centres unmarked) | -18.9
41 | Br.Clc1ccc(C2=CSC3=NCCN23)cc1Cl | -48.2
42 | Cc1cc(NC(=O)COC(=O)[C@H](Cc2c[nH]c3ccccc23)NC(=O)c2ccc(F)cc2)no1 | -16.1
43 | COc1ccc(C2SCC(=O)Nc3c2c(=O)[nH]n3C2CCCCCC2)cc1 (centres unmarked) | 2
44 | CN(C)c1cccc(C(=O)Nc2cccc(F)c2)c1 | 5.67
45 | COc1ccc(NC2c3ncccc3C(=O)N2Cc2ccccc2)c(OC)c1 (centres unmarked) | -10.4
46 | COc1cccc(/C=N/NC(=O)Cn2ccnc2C)c1 | -16.7

Row | SMILES | hERG current change (%, negative = inhibition) at 10uM [%]
47 | CCC(=O)N1CCn2c1nc1ccccc12 | 10.1
48 | COc1cc(-c2nc(C(F)(F)F)c(OC)o2)cc(OC)c1OC | 8.27
49 | COc1ccc(C2CC(c3ccco3)n3ncnc3N2)cc1 (centres unmarked) | -15.6
50 | O=C(COC(=O)c1cnc(Cl)c(Cl)c1)NCc1ccc2c(c1)OCO2 | 16.4
51 | COc1ccccc1OCc1ccc(C(=O)N2CCOCC2)o1 | 1.95
52 | COc1ccc(Cl)cc1NC(=O)CC(C)=O | 5.08
53 | COCCN(CC(=O)Nc1ccccc1C(F)(F)F)C(=O)/C=C/c1ccc2ccccc2n1 | -17.6
54 | Cc1ccc(S(=O)(=O)N2CCCCC2)cc1C(=O)NC1CCCCC1 | 17.8
55 | COc1ccc(Br)cc1CNc1ccc(O)cc1 | -4.69
56 | CCN1CCN(c2ccc(NC(=O)COc3ccc([N+](=O)[O-])cc3)cc2)CC1 | -54.3
57 | O=C1Cc2ccccc2Sc2ccccc21 | 1.13
58 | COc1ccc(C2Nc3ccccc3C(=O)N2c2ccc(C)cc2)cc1Cn1cc([N+](=O)[O-])cn1 (centres unmarked) | 0.322
59 | O=C(/C=C/Nc1ccc(F)cc1F)c1ccco1 | -2.25
60 | Cc1ccnc(NCc2cccc3ccccc23)c1.Cl | 14
61 | Cc1ccc(N(C(=O)Nc2ccccc2)C2=NCCC2)cc1 | 10.8
62 | O=C(CCS(=O)(=O)c1ccc(Cl)cc1)N1CCN(c2ccc(F)cc2)CC1 | -76.1
63 | CC(C)(C)C(=O)NC1CCN(S(=O)(=O)c2cccc(C(F)(F)F)c2)CC1 | -15.7
64 | Cc1nn(-c2ccccc2)c(N2CCCC2)c1/C=N/NC(=S)Nc1ccccc1F | 3.38
65 | CC1=NN(c2ccccc2)C(=O)C1C=Nc1ccc(N(C)C)cc1 (centres unmarked) | 19.4
66 | Cc1ccc(NC(=O)CSc2nnc(C)c(=O)n2N)cc1Cl | -9.11
67 | COc1ccc(CCNC(=O)c2c(O)c3ccccc3[nH]c2=O)cc1 | 15.4
68 | O=C(CCNC(=O)Cn1cnc2ccccc2c1=O)NCCC1=CCCCC1 | 13.2
69 | Cc1[nH]c2ccccc2c1/C=N/NC(=O)Nc1ccccc1 | 21.5

Row | SMILES | hERG current change (%, negative = inhibition) at 10uM [%]
70 | C1CCN(C2CCN(c3nc4nonc4nc3N3CCSCC3)CC2)C1 | -18
71 | CSc1nnc(NC(=O)c2cccc(S(=O)(=O)N3CCOCC3)c2)s1 | -5
72 | CC(=O)Nc1ccc(S(=O)(=O)NC2CC(=O)N(c3ccc4c(c3)OCCO4)C2)cc1 (centres unmarked) | 6.77
73 | c1ccc2c(Nc3nc(-c4ccncc4)nc4ccccc34)cccc2c1 | 20.1
74 | CCOC(=O)c1c(NC(=O)COC(=O)Cn2c(C)nc3ccccc32)sc2c1CCCC2 | 11.1
75 | COc1ccc(CNC(=O)C2CC(=O)N(C3CCCC3)C2)cc1 (centres unmarked) | -8.14
76 | CCc1ccc(NC(=O)N(CCCN2CCOCC2)Cc2cccs2)cc1 | -52.8
77 | Cc1ccc(NC(=O)C(C)OC(=O)CCN=C2NS(=O)(=O)c3ccccc32)cc1 (centres unmarked) | 0.785
78 | c1ccc(Nc2nc(N3CCNCC3)nc(N3CCOCC3)n2)cc1 | -43
79 | COc1ccc(N(C(C)C(=O)N2CCCC2)S(C)(=O)=O)cc1 (centres unmarked) | 14.8
80 | CC(C)CN(CC(C)C)C(=O)CN1C(=O)NC2(CCCc3ccccc32)C1=O (centres unmarked) | 11.3
81 | COc1ccc(-c2ccc(C#N)c(OC(=O)c3c(Cl)cccc3Cl)n2)cc1 | 24.1
82 | COc1cc(C(=O)NC2CCCc3ccccc32)cc(OC)c1C (centres unmarked) | 20.8
83 | CCOC(=O)Cn1nc(C)c(-c2ccccc2)c1N | 9.36
84 | O=C(OCc1ccc(F)cc1)c1ccc2c(c1)-c1ccccc1C2=O | 12.2
85 | COc1cccc(OCc2cc(C(=O)NCc3ccc4c(c3)OCO4)no2)c1 | 1.23
86 | CCN(Cc1ccccc1)C(=O)C1CCN(C/C(C)=C/c2ccccc2)CC1.O=C(O)C(=O)O | -70.4
87 | CCOc1ccc(NC(=O)CSc2nc(=O)n(CCCN3CCOCC3)c3c2CCC3)cc1 | -24.1
88 | C[C@@H](O)C(C(=O)N1CCNCC1)n1cc([C@@H](N)CCCCN)nn1 (some centres unmarked) | -22.5
89 | COc1ccc(OCC(=O)Nc2cccc3cccnc23)cc1 | -3
